# Assay results published in paper PMC4336329 (PLoS ONE, 2015).
# In all, about 310,000 compounds went through this assay and about 2,200 (0.71%) showed an effect of 50% or more. Effects have a minus sign here. This is one part of the list.
# Target: human ether-à-go-go-related gene (hERG) potassium channel (human, UniProt Q12809)
# Test: primary screen, population patch clamp on CHO cells stably expressing hERG
# human ether-à-go-go-related gene (hERG) potassium channel, sequence (Q12809 whole entry, looked up): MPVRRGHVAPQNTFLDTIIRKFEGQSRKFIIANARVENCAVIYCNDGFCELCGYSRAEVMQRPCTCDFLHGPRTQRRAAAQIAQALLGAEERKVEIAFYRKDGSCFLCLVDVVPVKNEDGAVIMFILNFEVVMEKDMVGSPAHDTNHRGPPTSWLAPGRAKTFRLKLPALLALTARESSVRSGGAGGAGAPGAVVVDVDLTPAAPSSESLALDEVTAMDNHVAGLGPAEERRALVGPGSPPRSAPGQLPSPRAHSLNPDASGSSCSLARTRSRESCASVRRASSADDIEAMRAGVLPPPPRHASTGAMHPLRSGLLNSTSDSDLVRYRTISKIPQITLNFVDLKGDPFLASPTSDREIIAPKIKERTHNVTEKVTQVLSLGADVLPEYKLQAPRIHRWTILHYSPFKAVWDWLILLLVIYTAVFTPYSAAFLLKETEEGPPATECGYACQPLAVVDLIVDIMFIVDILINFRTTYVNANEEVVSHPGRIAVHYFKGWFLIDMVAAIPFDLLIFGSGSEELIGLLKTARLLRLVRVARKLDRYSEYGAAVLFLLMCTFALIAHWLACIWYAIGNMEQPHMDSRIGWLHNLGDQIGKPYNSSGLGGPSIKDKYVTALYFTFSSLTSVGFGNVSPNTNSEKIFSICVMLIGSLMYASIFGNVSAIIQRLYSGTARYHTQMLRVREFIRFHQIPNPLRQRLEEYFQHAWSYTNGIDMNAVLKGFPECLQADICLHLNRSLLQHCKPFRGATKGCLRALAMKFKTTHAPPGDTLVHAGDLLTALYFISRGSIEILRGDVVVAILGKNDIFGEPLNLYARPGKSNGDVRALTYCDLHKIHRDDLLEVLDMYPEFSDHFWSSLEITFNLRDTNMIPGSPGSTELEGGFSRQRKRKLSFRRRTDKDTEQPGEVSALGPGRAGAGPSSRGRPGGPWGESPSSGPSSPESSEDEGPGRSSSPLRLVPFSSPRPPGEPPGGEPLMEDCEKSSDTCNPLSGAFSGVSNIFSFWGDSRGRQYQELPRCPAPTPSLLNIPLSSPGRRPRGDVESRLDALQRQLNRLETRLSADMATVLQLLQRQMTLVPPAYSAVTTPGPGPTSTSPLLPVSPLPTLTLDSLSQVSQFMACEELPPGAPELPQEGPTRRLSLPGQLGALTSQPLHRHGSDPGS
row,Structure (SMILES),"hERG current change (%, negative = inhibition) at 1uM [%]"
1,Brc1ccc(-c2csc(-c3c[nH]c4ccccc34)n2)cc1,12.1
2,O=C(CSc1nc2ccccc2c(=O)n1NC(=O)Cc1ccccc1)NCc1ccccc1Cl,-1.02
3,COc1ccc(C2=NN(C(=O)c3ccccc3C(=O)O)C(c3ccccc3O)C2)cc1 (centres unmarked),0.318
4,O=C(CCS(=O)(=O)Cc1ccc(Cl)cc1)NCCCN1CCOCC1,0.677
5,COP(=O)(c1ccc(N(C)C)cc1)C(O)c1ccccc1 (centres unmarked),9.86
6,CC1(C)Cc2c(C#N)c(N3CCCC3)nc(-c3ccco3)c2CO1,16.2
7,O=C1OC(/C(=C\Nc2cc(Cl)ccc2O)[N+](=O)[O-])c2ccccc21 (centres unmarked),11.8
8,Cc1ccc(S(N)(=O)=O)c(C)c1N1CCCC1=O,18.7
9,CN1CCN(S(=O)(=O)c2ccc(NC(=S)NC(=O)C3CCCC3)cc2)CC1,14.4
10,O=S(=O)(Nc1ncccn1)c1ccc(NC(=S)Nc2ccccc2Cl)cc1,14.3
11,Br.O=C(CN1CCCCC1)c1ccccc1F,15.5
12,Cc1cc(C2C(C#N)=C(N)OC3=C2C(=O)CC(C)(C)C3)c(C)s1 (centres unmarked),0.138
13,O=C(O)/C=C/C(=O)NC1CCS(=O)(=O)C1 (centres unmarked),5.36
14,CC(NC(=S)Nc1ccccc1Cl)C(c1cccs1)N1CCCC1 (centres unmarked),-3.4
15,CCOC(=O)c1cccc(NC(=O)CSc2nnc(COc3ccccc3C)o2)c1,8.63
16,CC(C)(C)[C@@H]1C=C(C(=O)Nc2ccccc2)O[C@H](OCc2ccc(CO)cc2)C1,15.4
17,O=C(COC(=O)c1ccc[nH]c1=O)c1ccc(Cl)s1,11.7
18,COc1ccc(CCNC(=O)CSc2nc(C)nc3c2oc2ccccc23)cc1OC,1.3
19,CSc1cccc(CN2CCC(CCC(=O)NC3CC3)CC2)c1,-37.9
20,Cc1ccc2cc(/C=C/C(=O)c3ccco3)c(Cl)nc2c1,13.8
21,Cc1cc(NS(=O)(=O)c2ccc(NC(=O)c3cccnc3)cc2)nc(C)n1,-0.403
22,Cc1c(Cl)cccc1NC(=O)CC(C(=O)O)C1CCCO1 (centres unmarked),0.279
23,COc1ccc(OC)c(CN2CCN(Cc3cccc4ccccc34)CC2)c1.O=C(O)C(=O)O,-4.64

row,Structure (SMILES),"hERG current change (%, negative = inhibition) at 1uM [%]"
1,Cc1oc2nc(SCCCC(=O)NCCO)nc(N)c2c1C,4.63
2,CCC(C)[C@H](NC(=O)Nc1ccc2c(c1)OCCO2)C(=O)OC (some centres unmarked),4.48
3,Cc1nnc(SCC(=O)N/N=C/c2cn(-c3ccccc3)nc2-c2ccccc2)n1-c1ccccc1,7.43
4,COc1ccc(CC(=O)N2CCN(c3ccc(F)cc3)CC2)cc1,8.38
5,CCc1ccc(N(C(C)=O)c2nc(CCl)cs2)cc1,9.33
6,COC(=O)c1cn(-c2ccc(F)cc2)c(=O)c2ccccc12,5.17
7,COc1c(N2CCN(C(=S)NCc3ccccc3)C(C)C2)c(F)cc2c(=O)c(C(=O)O)cn(C3CC3)c12 (centres unmarked),4.87
8,CC(=O)c1cc(CN2CCC(n3nccc3NC(=O)c3ccccc3C)CC2)cs1,-15.8
9,COc1ccc(/C=C2\CN(Cc3ccccc3)C/C(=C\c3ccc(OC)cc3)C2=O)cc1,8.07
10,CC1CC(C)CN(CC(=O)N2CCc3[nH]c4ccccc4c3C2)C1 (centres unmarked),-7.73
11,CCN(CC)S(=O)(=O)c1cccc(C(=O)NNC(=O)c2ccc3[nH]c(=O)c(=O)[nH]c3c2)c1,7.86
12,Cc1ccccc1OCCN1C(=O)C(=O)c2cccc(C)c21,14.5
13,O=C(NC1=NCCS1)c1cc(-c2cccs2)nc2ccccc12,9.11
14,CC(=O)Nc1ccc(Nc2nc3c(S(=O)(=O)c4ccc(C)c(C)c4)nnn3c3ccccc23)cc1,6.05
15,CC1CCCCC1NC(=O)C1CCC(CNS(=O)(=O)c2ccc(F)cc2)CC1 (centres unmarked),8.79
16,O=C(CCl)NC1(C(F)(F)F)C(=O)Nc2c1c(=O)[nH]c(=O)n2-c1ccccc1 (centres unmarked),12.9
17,COc1ccc(C(=O)OCCCOC(=O)c2ccc(OC)cc2OC)c(OC)c1,6.84
18,COc1cc(/C=C2/C(=O)NN(c3ccc(Cl)cc3)C2=O)cc(OC)c1O,8.83
19,CCc1nnc(NC(=O)CS(=O)(=O)Cc2ccccc2)s1,13.9
20,C/C(CC(=O)NC1CCCCC1)=N\NC(=O)c1ccccn1,17.8
21,COc1ccc(CCNC(=O)c2cc(-c3ccncc3)nc3ccc(S(=O)(=O)N4CCOCC4)cc23)cc1OC,2.32
22,NC(=O)C1CCCNC1 (centres unmarked),8.59
23,COc1ccc(NC(=O)CN(C)C(=O)c2n[nH]c3ccccc23)cc1,17.4

row,Structure (SMILES),"hERG current change (%, negative = inhibition) at 1uM [%]"
1,CCCCC(=O)Nc1cccc(NC(=S)NC(=O)COc2ccccc2Cl)c1,10.9
2,CC(C)C(NS(=O)(=O)c1ccc2c(c1)C(C)(C)C(=O)N2C)C(=O)NCc1ccc(F)cc1 (centres unmarked),-0.523
3,O=C(/C=C/c1ccccc1Cl)c1cccnc1,6.53
4,Cc1cccc(NC(=O)C(C)SCc2ccccc2)c1 (centres unmarked),8.11
5,COc1ccc(S(=O)(=O)N2CCN(C(=O)CCc3c[nH]c4ccccc34)CC2)cc1,1.3
6,COc1ccc(/C=C2\CCC(C3CCCC3)C2=O)cc1Cn1cccn1 (centres unmarked),7.58
7,CC(C)(C)C(=O)Oc1cccc(Nc2ncnc3ccccc23)c1,12.8
8,O=C1CC(c2ccccc2)CC(O)=C1C=NCCc1ccccc1 (centres unmarked),9.41
9,O=C(Nc1cccc2[nH]ncc12)NS(=O)(=O)c1ccccc1,16.5
10,O=C(CNC(=O)c1cccc(F)c1)N/N=C/c1ccc(O)c([N+](=O)[O-])c1,15.4
11,Brc1ccccc1OCCCn1cnc2ccccc21,2.78
12,O=C(Cc1ccc(Cl)cc1Cl)OCC(=O)N1CCN(C(=O)c2ccco2)CC1,-18.5
13,CCOC(=O)c1c(-c2ccc(-c3ccccc3)cc2)csc1NC(=O)CCC(=O)O,11.7
14,COc1ccccc1-c1cc(C(=O)NCCCN2CCOCC2)no1,2.15
15,Cc1ccc(NC(=O)N2CCC(=O)N2)cc1,19.2
16,O=C(CSc1ccccc1)Nc1ccc2c(c1)OCO2,11.7
17,Cc1cc(=O)nc2c3ccccc3n(CC(=O)NC3CCCCC3)n12,15.2
18,Cc1ccc2c(c1)N(C(=O)c1ccco1)C(C)(C)c1ssc(=S)c1-2,1.58
19,COc1ccc(-c2noc(CCC(N)=O)n2)cc1OC,8.32
20,O=C(c1cccc(N2CCNC2=O)c1)N1CCCC(Nc2cccc(F)c2)C1 (centres unmarked),13.6
21,Cc1cc(CNC(=O)C(C)n2nc(C)c([N+](=O)[O-])c2C)c2ccccc2n1 (centres unmarked),10.7
22,Cc1cc(C(=O)CS(=O)(=O)c2ccc(F)cc2)cc(C)c1OC(=O)N(C)C,4.73
23,CC(NC(=O)COC(=O)CCc1ccccc1)c1ccccc1 (centres unmarked),11.2

row,Structure (SMILES),"hERG current change (%, negative = inhibition) at 1uM [%]"
1,COc1ccc(-c2cccc(NC(=O)COc3ccc(Cl)cc3)c2)nn1,10
2,CCc1nnc(NC(=O)c2cc(OC)c(OC)cc2[N+](=O)[O-])s1,10.5
3,CCC(=O)c1ccc(OCC(O)Cn2nc(C)c(Br)c2C)cc1 (centres unmarked),-100
4,Cl.Clc1ccccc1CSC1=NCCN1,6.35
5,CCOc1ccc(NS(=O)(=O)c2cnc(Cl)c(Cl)c2)cc1,-3.18
6,c1ccc(-n2ncc3c(NCc4ccco4)ncnc32)cc1,0.175
7,CC(=O)N1CC(C)Oc2ccc(S(=O)(=O)NC(CC(=O)O)c3cc(C)ccc3C)cc21 (centres unmarked),14.1
8,Cc1onc(-c2c(F)cccc2Cl)c1C(=O)c1ccccc1,13.7
9,CCCCn1c(-c2ccoc2C)n[nH]c1=S,-0.37
10,Fc1ccccc1N1CCN(c2nc3ccccc3n3nnnc23)CC1,8.38
11,COc1ccc(C(=O)CSc2nnc(CNC(=O)c3ccco3)n2C)cc1OC,17.5
12,COC(=O)C(CO)Nc1ncnc2onc(-c3ccc(F)cc3)c12 (centres unmarked),14.4
13,O=c1c2ccccc2nc(-c2cccc(Cl)c2)n1O,9.71
14,O=C(COC(=O)c1ccc(F)c(S(=O)(=O)N2CCOCC2)c1)NC1CC1,2.24
15,O=c1c2ccccc2cnn1Cc1ccc(Br)cc1F,4.03
16,COc1cc(S(=O)(=O)N2CCOCC2)ccc1NC(=O)CSc1nnc(N)s1,-4.99
17,CCOC(=O)c1nnn(-c2nonc2-n2cccc2)c1CN1CCCCC1,-3.02
18,O=C(NCc1ccc2c(c1)OCO2)c1ccc(-c2ccc(Cl)cc2)o1,11.8
19,CCn1c(=O)c(CCC(=O)NCCN2CCOCC2)c(C)c2c(C)nn(-c3ccccc3)c21,-2.1
20,Cc1ccc(C(=O)Nc2ccc3cn[nH]c3c2)cc1S(=O)(=O)N1CCCCC1,6.99
